Structures are written as SMILES.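 In this assay, cells in 96-well plates receive the compound at five concentrations for 48 hours. Endpoints are linearly interpolated between the surrounding concentrations. Here, GI50 denotes the concentration required for 50% inhibition of growth. TGI denotes the concentration required for complete inhibition of growth.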

The subject of the experiment is NCI-H322M lung. Briefly: NCI-60 cell line screen, 48 h.
As to `Oc1ccccc1-c1nnc(SCc2ccc(O)c3ncccc23)n1-c1ccccc1`, the GI50 was 0.482 µM and the TGI is above 100 µM.
In the case of `Oc1ccc(CSc2nnc(-c3ccccc3)o2)c2cccnc12`, the GI50 is 1.77 µM and the TGI is above 100 µM.
The corresponding values for `C#C[C@]1(O)CC[C@H]2[C@@H]3CC=C4c5sc(-c6ccc(F)cn6)nc5CC[C@]4(C)[C@H]3CC[C@@]21C` are 4.22 µM and 16.5 µM.
`O=C(Nc1cc(C(F)(F)F)cc(C(F)(F)F)c1)Nc1ccc2oc(=O)ccc2c1`: the GI50 was 2.69 µM and the TGI is above 100 µM.

The values above are taken from PubChem BioAssay (NCI).
